# Results as given in the supplement of paper PMC4604168 (melanoma cell lines).
# The other results are listed elsewhere or left out. Many values rest on one well or one pass, so single values are uncertain.
# Tested on: LB2518-MEL
# Test: cell count relative to DMSO control; melanoma cells; higher = more viable cells
# Conditions: library dose: low library concentration; 72 h
# 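Note: cell number obtained by counting DAPI-stained nuclei in high-throughput microscope images with image analysis software, screen run in 1,536-well plates.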
row,SMILES,cell count [%]
1,"CCCCCCCCc1ccc(CCC(N)(CO)CO)cc1 [fingolimod] + NC(=O)Nc1cc(-c2cccc(F)c2)sc1C(=O)N[C@H]1CCCNC1 [AZD7762] (first compound 2 µM, partner dose 0.02 µM)",149
2,"CCCCCCCCc1ccc(CCC(N)(CO)CO)cc1 [fingolimod] + CO[C@@H]1[C@H](N(C)C(=O)c2ccccc2)C[C@H]2O[C@]1(C)n1c3ccccc3c3c4c(c5c6ccccc6n2c5c31)C(=O)NC4 [Midostaurin] (first compound 2 µM, partner dose 0.08 µM)",113
3,"Cc1ccc(NC(=O)c2cccc(N(C)C)c2)cc1NC(=O)c1ccc(O)cc1 + CN(C)S(=O)(=O)c1ccc2c(c1)/C(=C/c1cc3c([nH]1)CCCC3)C(=O)N2 [SU6656] (first compound 2 µM, partner dose 0.4 µM)",85.3
4,"NC(=O)c1ccc(N(C(N)=O)c2c(F)cccc2F)nc1-c1ccc(F)cc1F + OCCn1cc(-c2cnc3nnn(Cc4ccc5ncccc5c4)c3n2)cn1 [PF04217903] (first compound 0.4 µM, partner dose 1 µM)",90
5,"CC(C)(C)c1cnc(CSc2cnc(NC(=O)C3CCNCC3)s2)o1 + Cc1cc(N2CCOCC2)cc2[nH]c(-c3c(NC[C@@H](O)c4cccc(Cl)c4)cc[nH]c3=O)nc12 [BMS536924] (first compound 0.01 µM, partner dose 0.2 µM)",86.3
6,"NC(=O)c1ccc(N(C(N)=O)c2c(F)cccc2F)nc1-c1ccc(F)cc1F + NCC(=O)Nc1ccc(-n2nc(C(F)(F)F)cc2-c2ccc3c(ccc4ccccc43)c2)cc1 [OSU03012] (first compound 0.4 µM, partner dose 1 µM)",90.9

# Tested on: LOXIMVI
# Test: as above
# Conditions: library dose: low library concentration; 72 h
row,SMILES,cell count [%]
1,"NC(=O)c1ccc(N(C(N)=O)c2c(F)cccc2F)nc1-c1ccc(F)cc1F + Cn1cncc1[C@@](N)(c1ccc(Cl)cc1)c1ccc2c(c1)c(-c1cccc(Cl)c1)cc(=O)n2C [tipifarnib] (first compound 0.4 µM, partner dose 0.01 µM)",113
2,"NC(=O)c1ccc(N(C(N)=O)c2c(F)cccc2F)nc1-c1ccc(F)cc1F + CO[C@@H]1[C@H](N(C)C(=O)c2ccccc2)C[C@H]2O[C@]1(C)n1c3ccccc3c3c4c(c5c6ccccc6n2c5c31)C(=O)NC4 [Midostaurin] (first compound 0.4 µM, partner dose 0.08 µM)",64.3
3,"NC(=O)c1ccc(N(C(N)=O)c2c(F)cccc2F)nc1-c1ccc(F)cc1F + CN(NC(=O)CC(=O)NN(C)C(=S)c1ccccc1)C(=S)c1ccccc1 [STA4783] (first compound 0.4 µM, partner dose 0.006 µM)",103
4,"Cc1ccc(NC(=O)c2cccc(N(C)C)c2)cc1NC(=O)c1ccc(O)cc1 + O=C(O)c1ccc(-c2c[nH]c3ncc(-c4ccccc4)cc23)cc1C1CCCC1 [GSK650394] (first compound 2 µM, partner dose 0.16 µM)",96.1
5,"NC(=O)c1ccc(N(C(N)=O)c2c(F)cccc2F)nc1-c1ccc(F)cc1F + Cc1cc(N2CCOCC2)cc2[nH]c(-c3c(NC[C@@H](O)c4cccc(Cl)c4)cc[nH]c3=O)nc12 [BMS536924] (first compound 0.4 µM, partner dose 0.2 µM)",128
6,"NC(=O)c1ccc(N(C(N)=O)c2c(F)cccc2F)nc1-c1ccc(F)cc1F + COc1cc(Nc2ncc(F)c(Nc3ccc4c(n3)NC(=O)C(C)(C)O4)n2)cc(OC)c1OC [Tamatinib] (first compound 0.4 µM, partner dose 0.4 µM)",106
7,"CCCCCCCCc1ccc(CCC(N)(CO)CO)cc1 [fingolimod] + CN(C)S(=O)(=O)c1ccc2c(c1)/C(=C/c1cc3c([nH]1)CCCC3)C(=O)N2 [SU6656] (first compound 2 µM, partner dose 0.4 µM)",68.3
8,"CCCCCCCCc1ccc(CCC(N)(CO)CO)cc1 [fingolimod] + OCCn1cc(-c2cnc3nnn(Cc4ccc5ncccc5c4)c3n2)cn1 [PF04217903] (first compound 2 µM, partner dose 1 µM)",58.6
9,"NC(=O)c1ccc(N(C(N)=O)c2c(F)cccc2F)nc1-c1ccc(F)cc1F + NC(=O)Nc1cc(-c2cccc(F)c2)sc1C(=O)N[C@H]1CCCNC1 [AZD7762] (first compound 0.4 µM, partner dose 0.02 µM)",124
